PubChem BioAssay (NCI)
Some structures have more than one record in an assay (separate samples or runs), and their calls can disagree.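 Assay: single dose, 48 h. Readout: percent growth (0 = no net growth; negative = cell death). Active: <10.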 Certain results were filed several times, with different values. This is not the full list of results. An entry can have further records. These are repeated runs of one drug, at the concentration stated with the values; each value is one run. Marks such as (2×) count equal records among those shown.

Experiments:
OVCAR-8 ovarian = experiment: NCI-60 one-dose screen, 48 h (100 = growth as untreated, 0 = no growth, -100 = all killed)
OVCAR-5 ovarian = experiment: as above; details: 0.25 µM

## COc1cccc2c1C(=O)c1c(O)c3c(c(O)c1C2=O)C[C@@](O)(C(=O)CO)C[C@@H]3OC1CC(N)C(O)C(C)O1 (stereo partly drawn)
OVCAR-8 ovarian; 0.25 µM, runs of 2019
  growth: inactive: 30.7, 34.8 (2×), 32.9, 32.8, 33.9, 35.3 (2×), 39.7, 37.1 (2×), 39 (2×), 34.7 (2×), 37.7, 36.2, 36.5, 29.9, 36.6, 40.2 (2×), 43.6, 39.9, 42.9, 47, 42.8 (2×), 34.2, 46.9, 38.8, 40.8, 44.3, 43.3, 43.9, 37.5 (2×), 42.6, 40.3, 45.8, 33, 40.7, 44.9, 43.7, 44.4, 35.6, 36.7, 35.7%
OVCAR-8 ovarian; 0.25 µM, runs of 2020
  growth: inactive: 30.4, 35.7, 39.5, 42.5 (2×), 42.8, 40.1, 41.5, 41.1, 42.4, 38.4, 36.5, 36.7, 43.8, 39.7, 48.8, 40.3, 49.3, 38.6, 40.8, 44.3, 45.3%
OVCAR-8 ovarian; 0.25 µM, runs of 2021
  growth: inactive: 59.6, 58, 45.6, 41.6 (2×), 45, 43.3, 62.6, 61.3, 40.8 (3×), 38.6, 39.2, 50.6, 48.6, 35.6, 38.2, 41.1, 37.1, 38.1, 48.3, 40.7, 55.1, 37.8, 55.4, 54.1, 39.5, 42.3, 41.2, 38.5, 41, 44.4, 41.5, 42.8, 47.8, 47.3, 31.5, 33.4, 39.8, 29.9, 33.8, 37.4, 37.5, 66.6, 42.9, 44.1%
OVCAR-8 ovarian; 0.25 µM, runs of 2022
  growth: active: 6.34%, 9.57% and inactive: 35.4, 36, 13.1, 37.8, 24.8, 34.8, 41.7, 43.6, 32.5, 46.3, 52.6, 39.8, 42, 40.8, 36.5, 63, 77.9, 81.5, 60.1, 75.7, 46.7, 43.1, 48.3, 35.3, 36.1%
OVCAR-8 ovarian; 25 µM, runs of 1991
  growth: active: -27.4, -40.2, 2.96, -1.89, -19, -25.2, 6.28, -32.8, -21.3, -4.56, -32.2, -16.7, -18.4, -5.8, 3.17, -11.9, -17.7, -35.8%
OVCAR-8 ovarian; 25 µM, runs of 1992
  growth: active: -27.3, -7.61, -10.4, -4.79, -9.72, -14.2, -27.6, -14.3 (3×), -49.8, -31.9 (2×), -9.78, -11.2, -8.08, -19.4, -24.8, -22.2, 2.29, -20.8, -34 (2×), -25.8, -7.74, -20.9, -34.5, -15.1, -17.4, -5.07, 0.165, -13.8 (2×), 3.08, -13.2, -13.4, 2.11, 0.5, -10.6, -19.3, 0.594, -21.4, -25.1, -58.2, -18, -2.17, -7.97, -1.33, 3.24, -16.1, -21.1, -26.5, -10.8, -7.68 (2×), -12.1, -18.7, -20.4, -14.9, -7.21, -2.1, -8.27, -22.8 (2×), -30.8, 2.38, -35.9 (2×), -38.8, -33.2, -50.4, -33.3, -27, -46, 1.43, -5.39, -4.58, 0.917, -9.07, -23.8, -2.75, -17.6 (2×), -41.7, -35, -3.44, -33.7, -22.3, -4.15, -13, -13.9, -0.662, -23.5, -25.3, -17.8, 4.39, -27.8, -18.9, -44.5, -26.9, -40.7, -26.3, 2.7, -8.67, -23, 1.41, -40.4, -16.7, -4.57, -11.6, 2.04, -12.3, -32.4, -43.6, -45.3, -3.3, 1, -24.4% and inactive: 87.8%
OVCAR-8 ovarian; 25 µM, runs of 1993
  growth: inactive: 14.8%, 12.1% and active: -28, -26, -31.4, -49.1, 2.57, -16.9, -8.45, -41.8 (2×), -17.3, -17.8, -27.9, -1.18, 4.42, 2.03, -14.7, -22.5, -30.1, -19.1, -61.9, 4.87, 1.25, 6.4, -22.2, -4.41, -0.238, -47.1, 2.99, -18, -28.6, -17.7, -20.1, 3.54, -9.88, -16, -44.6, 2.75, -15.4, 3.87, -50.6, -32.8, 0.172, -45.3, -13.8, 0.163, 3.38%
OVCAR-8 ovarian; 25 µM, runs of 1994
  growth: inactive: 127%, 89%, 13.4% and active: -55.3 (2×), -46.4, -31.6, -36.1, -14.8, -42.8, -6.85, -6.71, -67.1, 1.26, 6.12, -46.2, -6.27, -7.66, -26.5, -27.7, -30.6, -27.6, -41.6, -26.1, 0.658, -41.9, -38.8, -8.49, -11.2, 1.54, 1.38, -48.3, 6.1%
OVCAR-8 ovarian; 25 µM, runs of 1995
  growth: active: -15.8, -21.7, -21, -39.5, -37.4, -9.86, -65.1, -5.16, -12.5, 0.162, 6.67, 0.874, -27.1, -23.8 (2×), -12.7, -14.1, -41.9, -31.1, -37.3, -56.5, -52.5, -28.5, -19.8, -31.8, -4.75, 2.02, -19.4, 2.26, -12.4, -6.85, -36.9, 0.559, 4.4, -30.9, -4.42, -18.3, -10.8% and inactive: 40.2%, 10.2%
OVCAR-8 ovarian; 25 µM, runs of 1996
  growth: active: -11.2, -16.6, -33.2, 5.39 (2×), -8.44, -0.0967, 5.96, 2.28, -22.7, -18.7, 3.43, -4.02, -5.25, -14.2, 4.49, -33.6 (2×), -73.8, 8.6, -28.9, -36.9, -31.6, 0.296, 3.58, -45.1, -29, -28.3, -20.6, -21.2, 2.05, 0.0372, -20.5, -23.3, -60.6, -52.3, -8.9, -54.3, 0.356, -19, -30, -3.89, -6.39, -13.2, -40, -0.815, -15, -10.6, -36.2, 3.51, -55.2, -17.2% and inactive: 98.6, 58.5, 29.6, 11.8, 10.2, 12.8%
OVCAR-8 ovarian; 25 µM, runs of 1997
  growth: inactive: 10.4%, 103%, 17.4% and active: -19.2, 9.04, -24.3, 0.426, -35.1, -10.4, 3.47, -16.5, -24, -25.5, -12.3, -28.2, -31.5, -0.828, 1.86, -23.4, -33.6, -14.8, -18.7, -13.9, 7.34, -23.2, -51.5, -38.2, -0.698, -20.6, -51.7, 3.5, -45.6, -35.4, -32.7, -30.2, -33.2, -59.4, -50, -11.2, -56.1, -42.9, -49.2%
OVCAR-8 ovarian; 25 µM, runs of 1998
  growth: active: -12.7, -52, -11.4, -32.3, 3.72, -37.8, -50.7, -81.5, -36.6, -31.1, 0.248, -3.12, -27.7, -35, -51.6, -57, -65.9, -20.7, 1.07, 8.73, -55.2, -2.14, 2.52% and inactive: 18.4%
OVCAR-8 ovarian; 25 µM, runs of 1999
  growth: active: -41.4, -14.1, -77.9, -12.7, -100 (3×), 1.26, -79.5, 5.18, -29.5, 4.23, -88.8, -57.6, 0.415, -21.2% and inactive: 13.5%
OVCAR-8 ovarian; 25 µM, runs of 2000
  growth: active: -100% (2×), 0.98%, -0.658%
OVCAR-5 ovarian; runs of 2006
  growth: inactive: 45.8%, 65.7%
OVCAR-5 ovarian; runs of 2007
  growth: inactive: 49.9, 63, 77, 71.3, 95.6, 102 (2×), 94.1 (2×), 106 (2×), 110 (3×), 96.6 (2×), 99.4, 92.3, 105, 128, 101, 86.3, 99.2, 97.8, 126, 80.4, 112, 107, 11.4, 98.6, 90.3, 88.9, 85.2, 125, 120, 95.1, 75.6, 88.5, 90.5%
OVCAR-5 ovarian; runs of 2008
  growth: inactive: 106, 97.9, 90.7, 100 (2×), 101 (3×), 102, 107 (3×), 105 (2×), 110, 115, 125, 85.6, 82.2, 86.1 (3×), 84.3, 80.5, 91.7, 88.9, 120, 96.8, 71, 79.9, 83.7, 96.6, 90, 30, 72.8, 67.9, 62.8, 78.5, 88.5, 92.1, 75.3, 96.3, 98, 126, 119, 96.7, 111 (2×), 96.2, 85.9, 95.2, 79.2, 89.1, 94.3%
OVCAR-5 ovarian; runs of 2009
  growth: inactive: 75.9, 76.5, 79.9, 75.1, 78.2 (2×), 94.7, 99.3, 107, 89.2, 86, 105 (3×), 98.5, 89.1, 91.8 (2×), 85.6, 88.7, 86.3, 93.7 (2×), 68.9, 92.2, 82, 74.7, 69.8, 84.5 (2×), 74, 83, 82.8, 97.6, 74.9, 72.2, 61.2, 78, 77.6, 78.4, 91, 86.8, 101 (3×), 84.3, 77.4, 79.3, 91.5, 97.9, 102 (2×), 89.9, 125, 115, 100, 114 (2×), 94, 109, 96.3%
OVCAR-5 ovarian; runs of 2010
  growth: inactive: 114 (3×), 94.7, 88.1, 92.1, 96.2 (2×), 115 (2×), 106 (3×), 107 (2×), 100 (2×), 94.3, 95.1, 119, 102 (2×), 88.9, 83.1, 91.3, 68, 89.7, 96.5, 84, 89.3, 80.6, 116, 93.9, 85.1, 73.6, 91, 109, 96.8, 99.7, 105 (3×), 88.5, 85.8, 92.4, 110%
OVCAR-5 ovarian; runs of 2011
  growth: inactive: 109 (3×), 111, 107 (3×), 114, 119, 82.8, 75.7, 95, 90.2, 90.3 (2×), 93.1, 94.5, 101 (5×), 97.7, 98.6 (2×), 92.4, 94.1, 99.7, 91.2, 77.7, 86.8, 99.4 (2×), 92.1, 82.2, 90.8, 92.3 (2×), 98.4, 97.9 (2×), 100, 113, 90.1, 71.2, 94.9, 83.2, 97.3, 88.5, 90.7, 86.6%
OVCAR-5 ovarian; runs of 2012
  growth: inactive: 98, 85.8, 94.2 (2×), 95, 95.4, 86.6, 98.9, 99.7, 102 (5×), 106, 93.5, 97.2, 77.7, 96.2, 107 (3×), 97.1, 82.2, 93.9, 88.9, 83.8, 96.8, 94.7, 98.3, 98.7, 91.1, 98.6, 110 (2×), 112, 98.4 (2×), 87.8, 100, 116, 105, 111, 96.1, 99.1, 92.9, 89.9 (2×), 91.6, 89.8, 93.7, 92.6, 87.5, 69.1, 74.6, 89%
OVCAR-5 ovarian; runs of 2013
  growth: inactive: 74.3 (2×), 84.3, 82.3, 76.3, 76.5, 88.6, 81.4, 82.4, 86.6, 87.5, 79.2, 88.1, 80, 85.1, 83.8, 85.6, 97.6, 96.6, 94.9, 106 (2×), 102 (2×), 112, 107, 110, 98.7, 98.9, 111 (5×), 113 (3×), 109, 120, 118, 94.6, 98.1, 98.6, 91.6, 92.4, 101 (4×), 94.4, 94.7, 117 (2×), 89.5, 87.7, 83.5, 80.4, 74.7, 71.8, 73.8, 69.8, 69.4, 55.8, 58.3, 63, 72.3, 69.7, 73.6, 67%
OVCAR-5 ovarian; runs of 2014
  growth: inactive: 74, 78.4, 71, 63.4, 60.3, 79.3, 81.2, 50.7, 61.7, 60.2, 74.4 (2×), 56.9, 77.8, 72.4, 91.6, 81.5, 83.1 (3×), 89.5, 81.7, 93.1, 82.2, 74.8, 71.7 (2×), 70.6, 74.2, 71.1, 65.3, 69.6, 67.2 (2×), 64.4, 71.2, 64.7 (3×), 65.4, 72.2, 64.5, 61.9, 62.2, 52.5, 63.9, 59.4, 70.3, 64.9, 50.2, 60.6, 66.5, 71.4, 64.8, 60.8, 65.8, 63.1 (2×), 58.2, 58.8, 66, 69.8, 70.7, 62.6, 53.8, 68.6, 73.2, 76.1, 73.8, 71.6, 67.5, 92.5, 86.1, 80.7, 87.8, 68.2, 68, 95.6, 67.9%
